Among the data in PubChem BioAssay AID360 (National Center for Advancing Translational Sciences (NCATS), 2006) are Potency values, retold here.

Screen size: about 48,000 compounds; about 550 (1.1%) were called active. Inconclusive results (about 4%) are left out. No stated cut-off is given here; in the data, active means potency below about 15 µM; inconclusive means mostly about 16 µM to 33 µM; inactive means weaker than that. This is one part of the list.
Potency means the concentration at half of the fitted maximal effect.

For the test, the target named is Lysosomal acid glucosylceramidase (Homo sapiens) (UniProt P04062). Nature of the test: Glucocerebrosidase.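 Further: the screen sought inhibitors.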 The note with it: purified enzyme, resorufin glucoside fluorescence (screen aimed at inhibitors), 20 min. An outline of the steps: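 Normal human glucocerebrosidase (0.2 nM final) was assayed with resorufin β-D-glucopyranoside (30 uM final) in 50mM citric acid/KH2PO4, 10mM sodium taurocholate, 0.01% tween-20, pH 5.9. Compounds were titrated; fluorescence (Ex 548, Em 600) read after 20 min at RT.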
UniProt P04062, sequence (P04062 whole entry, looked up): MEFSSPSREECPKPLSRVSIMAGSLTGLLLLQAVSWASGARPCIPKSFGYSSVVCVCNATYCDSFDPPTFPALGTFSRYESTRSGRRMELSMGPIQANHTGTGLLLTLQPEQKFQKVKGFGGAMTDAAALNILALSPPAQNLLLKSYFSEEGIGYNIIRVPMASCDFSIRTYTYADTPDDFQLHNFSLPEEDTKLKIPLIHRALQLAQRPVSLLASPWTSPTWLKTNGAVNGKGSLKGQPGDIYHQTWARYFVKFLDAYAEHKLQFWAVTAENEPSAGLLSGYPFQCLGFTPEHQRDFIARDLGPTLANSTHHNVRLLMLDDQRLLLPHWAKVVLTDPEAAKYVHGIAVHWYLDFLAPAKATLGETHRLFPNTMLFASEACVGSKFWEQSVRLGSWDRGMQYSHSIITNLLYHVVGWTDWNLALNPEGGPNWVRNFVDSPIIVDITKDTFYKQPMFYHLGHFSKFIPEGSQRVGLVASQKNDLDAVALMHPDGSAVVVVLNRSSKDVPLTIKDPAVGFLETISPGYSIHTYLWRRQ
Regarding `CCSc1nc(N2CCOCC2)c2ccccc2n1`, the Potency is inactive: > 76.9 µM. For the compound `COc1ccc2cc(C(=O)OC(C)C)sc(=O)c2c1OC`, the Potency was inactive: > 76.9 µM. As for `CCc1nc(SCC(=O)N2CCc3ccccc32)c2oc3ccccc3c2n1`, the figure is inactive: > 76.9 µM. For the compound `O=C(O)CCCCCNCc1ccncc1`, the Potency was inactive: > 76.9 µM. For the compound `O=C(Nc1cccnc1)c1cccc(S(=O)(=O)N2CCOCC2)c1`, the Potency was inactive: > 76.9 µM.

As for `N#Cc1cc2sc3nnc(-c4ccncc4)n3c2cc1C#N`, the Potency was inactive: > 76.9 µM. Consider `CCN(Cc1cc2cccc(C)c2[nH]c1=O)C(=O)c1ccccc1OC`, for which the Potency was inactive: > 76.9 µM. Take `Cc1ccc2nc(-c3cccc(-c4nc5ccc(C)cc5o4)n3)oc2c1`: the Potency is inactive: > 76.9 µM.

With `CN1CCN(C(=O)c2c(O)c3cccc4c3n(c2=O)CC4)CC1`, the Potency was inactive: > 76.9 µM.

Consider `CCOC(=O)Cc1nnc2c(Nc3ccc(Cl)cc3)nc3nonc3n12`, for which the Potency is inactive: > 76.9 µM.

Consider `CCCn1c(SCC(=O)c2cc(OC)ccc2OC)nnc1C(C)C`, for which the Potency is inactive: > 76.9 µM.

As for `O=C1C2C3CCCC3=C3CCCC3C2C(=O)N1c1ccc(Cl)cc1` (stereo unspecified), the Potency is inactive: > 76.9 µM. For `COCCSc1ccccc1C(=O)Nc1ccncc1`, the Potency was inactive: > 76.9 µM. Consider `O=C(NC1CCCC1)c1sc(=S)n2c1[nH]c(=O)c1ccccc12`, for which the Potency was inactive: > 76.9 µM. With `Cc1ccsc1C=Nc1c(C)n(C)n(-c2ccccc2)c1=O`, the Potency was inactive: > 76.9 µM. Take `CCOc1ccc2nc(NCCNC(=O)C3CC3)c(C)cc2c1`: the Potency entry is “inactive”.

Regarding `COc1ccc(NC(=O)C2C(=O)NC3(C)CC2c2ccccc2O3)cc1` (stereo unspecified), the Potency is inactive: > 76.9 µM.

`O=C1C2C3C=CC(C3)C2C(=O)N1Cc1cccnc1` (stereo unspecified): the Potency was inactive: > 76.9 µM. Take `CCOC(=O)CSc1nc2c([nH]c3ccccc32)c(=O)n1C`: the Potency is inactive: > 76.9 µM.

On to `COc1cccc2cc(C(=O)N3CCN(c4ccccc4F)CC3)c(=O)oc12`, for which the Potency was inactive: > 76.9 µM. As for `Cc1ccc(C(CC(=O)O)Nc2nc(N3CCCCC3)nc(N3CCCCC3)n2)cc1` (stereo unspecified), the figure is inactive: > 76.9 µM.

In the case of `Cc1ccc(S(=O)(=O)NCCC(=O)NCc2ccc3c(c2)OCO3)cc1C`, the Potency was inactive: > 76.9 µM. Take `O=C(c1cnccn1)N(c1ccccc1)C1(C(=O)NC2CCCCC2)CCCCC1`: the Potency is inactive: > 76.9 µM. Consider `Oc1ccc(CNc2ccccc2F)c2cccnc12`, for which the Potency was inactive: > 76.9 µM. For the compound `CCOC(=O)Cc1nnc(NC(=O)c2ncn[nH]2)s1`, the Potency is inactive: > 76.9 µM.

For the compound `COc1ccccc1N1CCN(CC(=O)Nc2ccc(CN3CCCCC3)cc2)CC1`, the Potency was inactive: > 76.9 µM.
